From PubChem BioAssay (Tox21)
The inconclusive results got no clear call from the source; some entries with a clear call stand among them for comparison. For some assays here: Potencies beside an inconclusive call are fits to weak or partial responses and may not hold up. Some structures have more than one record in an assay (separate samples or runs), and their calls can disagree. Calls of active or inactive are those of the source. Unless noted, the call rests on the fitted dose curve; in most records, active means well fitted curve in the direction sought with a large enough effect in the repeat runs; inconclusive means weak or mixed curves; inactive means no such curve, though single readings can be large; an effect the other way counts as inactive or inconclusive.

What was measured:
[1] = qHTS assay to identify small molecule that activate the aryl hydrocarbon receptor (AhR) signaling pathway - cell viability counter screen (AID 743086); further: nearly all actives have a fitted effect of over 45% in size
How it was run: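 HepG2-AhR-luc (HG2L7.5c1) cells, 4000/well, treated 24 h at 37 C with compound; viability measured as CellTiter-Fluor fluorescence after 30 min in the same wells as the luciferase read.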

[2] = molecular target: Peroxisome proliferator-activated receptor gamma (Homo sapiens) (UniProt P37231); assay: qHTS assay to identify small molecule antagonists of the peroxisome proliferator-activated receptor gamma (PPARg) signaling pathway (AID 743191; calls by dose curve; further: nearly all actives have a fitted effect of over 30% in size); settings: HEK293H PPARg-UAS-bla, beta-lactamase ratio, antagonist, 17 h; ratio activity, negative = inhibition: at 62.6 µM (top of the series) unless noted
How it was run: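 GeneBLAzer PPARg UAS-bla HEK293H cells, 5 h post-plating, exposed to compounds 17 h at 37C. LiveBLAzer B/G FRET substrate added for 1 h at room temperature; beta-lactamase reporter read by fluorescence intensity.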

[3] = qHTS assay to identify small molecule antagonists of the peroxisome proliferator-activated receptor gamma (PPARg) signaling pathway - cell viability counter screen (AID 743194); settings: PPARg-bla HEK293H viability, CellTiter-Glo luminescence, 17 h, co-treated with 50 nM rosiglitazone; activity change, negative = cytotoxicity: at 62.6 µM (top of the series) unless noted; further: nearly all actives have a fitted effect of over 55% in size
How it was run: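 Cytotoxicity counter screen in PPARg-bla HEK293H cells, same wells as reporter assay. Compounds plus 50 nM rosiglitazone (final) for 17 h at 37 C, then viability read by CellTiter-Glo luminescence.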

[4] = qHTS assay for small molecule agonists of the antioxidant response element (ARE) signaling pathway (AID 743202; active means well fitted activation curve with a large enough effect in the signal ratio in the repeat runs, not every such curve was filed as active; inconclusive means weak or mixed curves, or effect the other way; inactive means no such curve, though single readings can be large or run the other way; the % refers to the signal ratio); settings: HepG2 ARE-bla reporter, beta-lactamase FRET, 16 h; activation: at 73.3 µM (top of the series) unless noted
How it was run: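 HepG2 ARE-bla reporter line, 2,000 cells/well; 5 h preincubation 37 C/5% CO2; compound (DMSO) 16 h 37 C; B/G FRET substrate 2 h RT; fluorescence intensity.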

[5] = qHTS assay for small molecule agonists of the antioxidant response element (ARE) signaling pathway - cell viability counter screen (AID 743203; calls by dose curve; further: nearly all actives have a fitted effect of over 55% in size); settings: ARE-bla HepG2 viability, CellTiter-Glo luminescence, 16 h; viability change, negative = cytotoxic: at 73.3 µM (top of the series)
How it was run: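 Viability counter screen: CellTiter-Glo luminescence, read after 30 min at room temperature, in ARE-bla HepG2 wells. Compound exposure lasted 16 h at 37C/5% CO2, following a 5 h pre-incubation of the cells after plating.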

[6] = qHTS assay for small molecule activators of the heat shock response signaling pathway - cell viability counter screen (AID 743209); settings: HSE-bla HeLa viability, CellTiter-Glo luminescence, 5 h; activity change, negative = cytotoxicity: at 62.6 µM (top of the series) unless noted; further: nearly all actives have a fitted effect of over 50% in size
How it was run: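 Cytotoxicity counter screen run in the same wells as the heat-shock bla reporter assay: HeLa HSE-bla cells, 5 h compound exposure at 37 C, viability read by CellTiter-Glo luminescence.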

[7] = qHTS assay for small molecule activators of the heat shock response signaling pathway (AID 743210; active means well fitted activation curve with a large enough effect in the signal ratio in the repeat runs, with a control signal flat, not every such curve was filed as active; inconclusive means weak or mixed curves; the % refers to the signal ratio); settings: HeLa HSE-bla reporter, beta-lactamase ratio, 5 h; activation: at 62.6 µM (top of the series)
How it was run: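 Beta-lactamase reporter read-out: FRET substrate fluorescence after 2.5 h at RT, following 5 h compound treatment at 37 C of HeLa cells carrying HSE-driven bla reporter; quantitative HTS format.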

[8] = qHTS assay to identify small molecule agonists of the peroxisome proliferator-activated receptor delta (PPARd) signaling pathway - cell viability counter screen (AID 743211); settings: PPARd-bla HEK293H viability, CellTiter-Glo luminescence, 17 h; activity change, negative = cytotoxicity: at 62.6 µM (top of the series); further: nearly all actives have a fitted effect of over 55% in size
How it was run: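 Viability was measured as CellTiter-Glo luminescence (30 min, room temperature) in the same wells as the beta-lactamase readout. GeneBLAzer PPARd UAS-bla HEK293H cells received compound after 5 h plating and were incubated 17 h at 37 C.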

[9] = molecular target: Peroxisome proliferator-activated receptor delta (Homo sapiens) (UniProt Q03181); assay: qHTS assay to identify small molecule agonists of the peroxisome proliferator-activated receptor delta (PPARd) signaling pathway (AID 743212; calls by dose curve; on activation: on the % scale 0 is the no-effect control and ±100 the full control effect); settings: HEK293H PPARd-UAS-bla, beta-lactamase FRET ratio, 17 h; activation: at 62.6 µM (top of the series) unless noted
How it was run: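 Read-out: beta-lactamase FRET fluorescence after 2 h room-temperature incubation with LiveBLAzer B/G substrate. Cells were HEK293H carrying a UAS-bla reporter for PPARd, treated at 37 C with DMSO-dissolved compounds.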

[10] = qHTS assay to identify small molecule antagonists of the peroxisome proliferator-activated receptor delta (PPARd) signaling pathway - cell viability counter screen (AID 743213); settings: PPARd-bla HEK293H viability, CellTiter-Glo luminescence, 17 h; viability change, negative = cytotoxic: at 62 µM (top of the series) unless noted; further: nearly all actives have a fitted effect of over 50% in size
How it was run: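 CellTiter-Glo was added to PPARd-bla HEK293H wells following 17 h compound treatment in the presence of 300 nM L165041. Luminescence was recorded after 30 min at room temperature.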

[11] = molecular target: Bile acid receptor (Homo sapiens) (UniProt Q96RI1); assay: qHTS assay to identify small molecule antagonists of the farnesoid-X-receptor (FXR) signaling pathway (AID 743217; active means well fitted inhibition curve with a large enough effect in the signal ratio in the repeat runs, not every such curve was filed as active; inconclusive means weak or mixed curves, or effect the other way; inactive means no such curve, though single readings can be large or run the other way; the % refers to the signal ratio); settings: HEK293T FXR-UAS-bla, beta-lactamase ratio, CDCA-stimulated, 16 h; activity change, negative = inhibition: at 62.6 µM (top of the series) unless noted
How it was run: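 Antagonist mode: chenodeoxycholic acid at 50 uM final stimulates a UAS-driven beta-lactamase reporter in HEK 293T FXR-bla cells during 16 h, 37C compound exposure. Read-out is FRET substrate fluorescence after 2 h at room temperature.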

[12] = qHTS assay to identify small molecule agonists of the farnesoid-X-receptor (FXR) signaling pathway - cell viability counter screen (AID 743218); settings: FXR-bla HEK293T viability, CellTiter-Glo luminescence, 16 h; viability change, negative = cytotoxic: at 62.6 µM (top of the series) unless noted; further: nearly all actives have a fitted effect of over 45% in size
How it was run: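 Viability counter screen in the same wells: CellTiter-Glo luminescence, 30 min room-temperature incubation, measured after the beta-lactamase read. Cells were GeneBLAzer FXR-UAS-bla HEK 293T, compound-treated 16 h at 37C.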

[13] = molecular target: Bile acid receptor (Homo sapiens) (UniProt Q96RI1); assay: qHTS assay to identify small molecule agonists of the farnesoid-X-receptor (FXR) signaling pathway (AID 743220; active means well fitted activation curve with a large enough effect in the signal ratio in the repeat runs, not every such curve was filed as active; inconclusive means weak or mixed curves, or effect the other way; the % refers to the signal ratio); settings: HEK293T FXR-UAS-bla, beta-lactamase FRET ratio, 16 h; activation: at 62.6 µM (top of the series) unless noted
How it was run: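 FXR-UAS-bla HEK 293T cells carrying a UAS-driven beta-lactamase reporter were plated for 5 h at 37C/5% CO2, then exposed to DMSO-dissolved Tox21 10K compounds for 16 h at 37C. A LiveBLAzer B/G FRET substrate was loaded for 2 h at room temperature before fluorescence reading.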

[14] = molecular target: Vitamin D3 receptor (Homo sapiens) (UniProt P11473); assay: qHTS assay to identify small molecule antagonists of the vitamin D receptor (VDR) signaling pathway (AID 743223; active means well fitted inhibition curve with a large enough effect in the signal ratio in the repeat runs, not every such curve was filed as active; inconclusive means weak or mixed curves, or effect the other way; inactive means no such curve, though single readings can be large or run the other way; the % refers to the signal ratio); settings: VDR-UAS-bla HEK293T, beta-lactamase FRET ratio, 16 h; activity change, negative = inhibition: at 61 µM (top of the series) unless noted
How it was run: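 Antagonist mode: compound added to VDR-bla cells alongside agonist 1alpha,25-dihydroxyvitamin D3 (3 nM final), incubation 16 h at 37C. Read-out is LiveBLAzer FRET fluorescence, 2 h at room temperature.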

[15] = qHTS assay to identify small molecule agonists of the vitamin D receptor (VDR) signaling pathway - cell viability counter screen (AID 743224); settings: VDR-bla HEK293T viability, CellTiter-Glo luminescence, 16 h; activity change, negative = cytotoxicity: at 62.6 µM (top of the series) unless noted; further: nearly all actives have a fitted effect of over 50% in size
How it was run: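 Counter screen run in the same wells as the VDR-bla reporter assay: CellTiter-Glo luminescence, 30 min at room temperature, after 16 h compound treatment at 37C of cells pre-plated for 4 h.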

[16] = qHTS assay to identify small molecule antagonists of the vitamin D receptor (VDR) signaling pathway - cell viability counter screen (AID 743225); settings: VDR-bla HEK293T viability, CellTiter-Glo luminescence, 16 h; viability change, negative = cytotoxic: at 61 µM (top of the series) unless noted; further: nearly all actives have a fitted effect of over 50% in size
How it was run: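 Cytotoxicity counter screen read by CellTiter-Glo luminescence (30 min, room temperature) in the same wells as the VDR-bla antagonist readout. HEK 293T VDR-UAS-bla cells had 16 h at 37C with compound and 3 nM (final) 1-alpha,25-dihydroxyvitamin D3, then 2 h with FRET substrate.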

[17] = molecular target: Peroxisome proliferator-activated receptor delta (Homo sapiens) (UniProt Q03181); assay: qHTS assay to identify small molecule antagonists of the peroxisome proliferator-activated receptor delta (PPARd) signaling pathway (AID 743215; active means well fitted inhibition curve with a large enough effect in the signal ratio in the repeat runs, not every such curve was filed as active; inconclusive means weak or mixed curves, or effect the other way; inactive means no such curve, though single readings can be large or run the other way; the % refers to the signal ratio;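 further: cells stimulated with agonist L165041 at 300 nM final during compound exposure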); settings: HEK293H PPARd-UAS-bla, beta-lactamase FRET ratio, antagonist, 17 h; ratio activity, negative = inhibition: at 62 µM (top of the series) unless noted
How it was run: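 Agonist L165041 (300 nM final) added with compound to PPARd-bla HEK293H UAS-bla reporter cells; 17 h incubation at 37 C. Read-out: LiveBLAzer FRET substrate, 2 h at room temperature, fluorescence intensity.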

[18] = qHTS assay to identify small molecule antagonists of the farnesoid-X-receptor (FXR) signaling pathway - cell viability counter screen (AID 743221; active means well fitted cell-killing curve with a large enough effect in the repeat runs, not every such curve was filed as active; inconclusive means weak or mixed curves, or effect the other way; inactive means no such curve, though single readings can be large or run the other way; further: nearly all actives have a fitted effect of over 50% in size); settings: FXR-bla HEK293T viability, CellTiter-Glo luminescence, 16 h; activity change, negative = cytotoxicity: at 62.6 µM (top of the series)
How it was run: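 Cytotoxicity counter screen run in the FXR-bla reporter wells: HEK 293T cells exposed to compound with 50 uM (final) chenodeoxycholic acid for 16 h, 37 C, then viability measured by CellTiter-Glo luminescence after 30 min, room temperature.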

[19] = molecular target: Vitamin D3 receptor (Homo sapiens) (UniProt P11473); assay: qHTS assay to identify small molecule agonists of the vitamin D receptor (VDR) signaling pathway (AID 743222; calls by dose curve); settings: HEK293T VDR-UAS-bla, beta-lactamase FRET ratio, 16 h; activation: at 63.5 µM (top of the series) unless noted
How it was run: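 Agonist mode, beta-lactamase reporter: fluorescence from LiveBLAzer B/G FRET substrate (2 h, room temperature) read after 16 h compound treatment at 37 C of VDR-bla cells, which were pre-incubated 4 h after seeding.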
Potency means the concentration at half of the fitted maximal effect; tags describe the fitted curve by direction and shape or compound fluorescence and quenching.

Chain of UniProt P11473 (P11473 whole entry, looked up): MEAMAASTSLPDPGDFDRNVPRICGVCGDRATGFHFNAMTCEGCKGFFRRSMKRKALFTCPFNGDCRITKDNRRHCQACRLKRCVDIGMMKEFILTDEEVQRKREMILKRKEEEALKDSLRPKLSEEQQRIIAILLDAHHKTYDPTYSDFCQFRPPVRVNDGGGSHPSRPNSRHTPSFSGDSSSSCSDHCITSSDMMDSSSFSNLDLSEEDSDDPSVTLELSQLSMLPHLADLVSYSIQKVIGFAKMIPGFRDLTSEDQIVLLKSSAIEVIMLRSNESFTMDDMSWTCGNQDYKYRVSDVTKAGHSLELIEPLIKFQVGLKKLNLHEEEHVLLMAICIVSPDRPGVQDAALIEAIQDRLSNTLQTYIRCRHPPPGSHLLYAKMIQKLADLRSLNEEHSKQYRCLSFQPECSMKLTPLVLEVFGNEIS
Chain of UniProt Q96RI1 (Q96RI1 whole entry, looked up): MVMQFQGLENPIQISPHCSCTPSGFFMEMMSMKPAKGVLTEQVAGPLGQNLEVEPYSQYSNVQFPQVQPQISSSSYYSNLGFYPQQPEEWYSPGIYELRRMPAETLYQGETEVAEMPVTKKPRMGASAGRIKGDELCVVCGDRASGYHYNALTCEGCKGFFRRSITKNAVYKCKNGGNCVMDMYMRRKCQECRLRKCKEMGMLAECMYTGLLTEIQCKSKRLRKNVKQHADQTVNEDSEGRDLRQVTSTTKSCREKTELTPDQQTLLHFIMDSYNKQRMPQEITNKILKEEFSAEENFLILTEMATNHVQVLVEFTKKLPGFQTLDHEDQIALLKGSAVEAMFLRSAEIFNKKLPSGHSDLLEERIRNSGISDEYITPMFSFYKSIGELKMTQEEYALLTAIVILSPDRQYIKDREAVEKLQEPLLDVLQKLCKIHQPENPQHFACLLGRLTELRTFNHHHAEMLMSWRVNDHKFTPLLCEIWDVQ
Chain of UniProt Q03181 (Q03181 whole entry, looked up): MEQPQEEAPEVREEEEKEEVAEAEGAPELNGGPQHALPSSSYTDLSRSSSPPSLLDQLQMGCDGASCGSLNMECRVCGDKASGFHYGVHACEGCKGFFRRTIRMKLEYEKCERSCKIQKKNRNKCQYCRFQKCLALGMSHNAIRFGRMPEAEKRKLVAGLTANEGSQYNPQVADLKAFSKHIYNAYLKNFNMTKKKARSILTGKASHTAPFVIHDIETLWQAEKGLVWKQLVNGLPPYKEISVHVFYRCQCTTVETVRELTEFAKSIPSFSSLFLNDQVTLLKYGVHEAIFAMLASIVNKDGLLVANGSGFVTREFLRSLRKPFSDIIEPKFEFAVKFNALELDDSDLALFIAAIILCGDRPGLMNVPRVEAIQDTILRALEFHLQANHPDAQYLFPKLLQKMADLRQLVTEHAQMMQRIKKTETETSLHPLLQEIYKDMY
Chain of UniProt P37231 (P37231 whole entry, looked up): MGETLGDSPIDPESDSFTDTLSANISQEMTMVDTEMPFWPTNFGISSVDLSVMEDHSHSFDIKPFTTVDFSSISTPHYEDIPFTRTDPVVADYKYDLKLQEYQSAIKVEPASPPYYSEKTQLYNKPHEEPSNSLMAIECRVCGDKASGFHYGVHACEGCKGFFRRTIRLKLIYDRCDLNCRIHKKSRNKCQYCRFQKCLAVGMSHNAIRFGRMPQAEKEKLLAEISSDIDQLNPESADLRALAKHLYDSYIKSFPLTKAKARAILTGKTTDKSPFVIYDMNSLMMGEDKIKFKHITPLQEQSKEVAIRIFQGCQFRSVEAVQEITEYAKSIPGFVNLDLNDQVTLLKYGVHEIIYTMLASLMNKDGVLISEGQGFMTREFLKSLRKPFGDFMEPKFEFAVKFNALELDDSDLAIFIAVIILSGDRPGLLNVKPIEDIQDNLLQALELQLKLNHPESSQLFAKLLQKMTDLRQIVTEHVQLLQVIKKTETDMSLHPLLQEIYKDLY

CC(=O)N1CCN(c2ccc(OC[C@H]3CO[C@](Cn4ccnc4)(c4ccc(Cl)cc4Cl)O3)cc2)CC1
inconclusive: Potency [2] 5.49 µM [rising, full curve, poor fit] | Potency [4] 21.7 µM [falling, partial curve] | Potency [6] 54.9 µM [cytotoxic] | Potency [7] 36 µM | activation [9] 18.4% | Potency [13] 24.5 µM [falling, partial curve, poor fit] | Potency [14] 54.9 µM [rising, single point]
active: Potency [1] 27.3 µM | Potency [3] 43.6 µM | Potency [5] 61.1 µM | Potency [8] 34.7 µM | Potency [10] 27.5 µM | Potency [11] 43.6 µM | Potency [12] 49 µM | Potency [15] 21.9 µM | Potency [16] 38.9 µM

NC1(c2ccc(-c3nc4ccn5c(=O)[nH]nc5c4cc3-c3ccccc3)cc2)CCC1
inconclusive: Potency [1] 13.3 µM [falling, partial curve] | Potency [2] 9.44 µM [activator, full curve, poor fit] | Potency [4] 33.5 µM | Potency [5] 33.5 µM [cytotoxic] | Potency [9] 16.8 µM [rising, partial curve, poor fit] | Potency [17] 33.5 µM [single point] | Potency [11] 33.5 µM | Potency [13] 33.5 µM [fluorescent, partial curve, poor fit] | Potency [19] 8.41 µM [fluorescent, partial curve] | Potency [14] 23.9 µM [fluorescent, partial curve]
active: Potency [3] 4.22 µM | Potency [8] 26.6 µM | Potency [10] 15 µM | Potency [12] 26.6 µM | Potency [18] 33.5 µM | Potency [16] 21.3 µM
